Source: the BET-seq Pho4 binding data (Le et al. 2018)
The other results are listed elsewhere or left out. Values were computed here from the reads of four pooled replicates and scatter widely.

Molecular target: T1, Pho4 (S. cerevisiae) (UniProt P07270)
T1 sequence: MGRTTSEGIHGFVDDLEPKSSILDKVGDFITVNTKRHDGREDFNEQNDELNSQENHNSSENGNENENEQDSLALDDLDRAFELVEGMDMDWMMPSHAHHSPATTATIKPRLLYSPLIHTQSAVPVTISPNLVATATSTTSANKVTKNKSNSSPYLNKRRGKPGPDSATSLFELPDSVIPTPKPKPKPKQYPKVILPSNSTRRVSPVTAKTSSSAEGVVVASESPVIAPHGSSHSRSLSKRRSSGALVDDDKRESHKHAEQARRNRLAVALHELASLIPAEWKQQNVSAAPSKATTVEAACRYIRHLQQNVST
Assay: relative binding free energy (BET-seq); higher = weaker binding
Details: reference: library average

Row | Sequence | relative binding free energy [kcal/mol]
1 | TTGATCACGTGGTGTC | -0.01
2 | AGGTACACGTGAGTTG | 0.26
3 | AGCGTCACGTGTGGTA | 0.07
4 | CTTGACACGTGGAATG | 0.13
5 | GCATTCACGTGTGTTG | 0.2
6 | CGTTACACGTGTGGGC | 0.1
7 | ACTGTCACGTGTTGGG | 0
8 | GTGGTCACGTGACTAA | 0.49
9 | GGGAGCACGTGTAACG | -0.06
10 | CAAATCACGTGTGGTG | 0.18
11 | TAGTTCACGTGTTGTT | 0.32
12 | GACGTCACGTGTTGGT | 0.26
13 | ATGTTCACGTGGAGCG | 0.31
14 | GTGTCCACGTGTGCGT | -0.07
15 | CATGGCACGTGGGGCC | -0.1
16 | GAATGCACGTGATGTA | 0.34
17 | TGTGGCACGTGTGGAG | -0.07
18 | GTGAGCACGTGCCGGG | -0.06
19 | ATGTGCACGTGATTTG | 0.01
20 | GGTATCACGTGATTGT | 0.27
21 | GTACGCACGTGGGTAT | -0.16
22 | GTTTGCACGTGGGCTT | -0.11
23 | GATTACACGTGAAAGT | 0.51

Row | Sequence | relative binding free energy [kcal/mol]
24 | AAGAGCACGTGGTGGT | -0.09
25 | GGCTTCACGTGTGTGA | 0.24
26 | TTAATCACGTGTGACG | 0.17
27 | TATGTCACGTGACTTT | 0.16
28 | AGACGCACGTGGTAAG | -0.03
29 | AGGTCCACGTGCGGGT | 0
30 | CCGGGCACGTGGGGGC | -0.23
31 | CTTAGCACGTGAGGGC | 0.33
32 | TTACTCACGTGTTTGT | 0.13
33 | TGGCACACGTGGTTAG | -0.11
34 | ATTCGCACGTGGTGAT | -0.07
35 | GGGAGCACGTGAAGAG | 0.05
36 | TGCTTCACGTGGTTGC | 0.23
37 | ATATGCACGTGGAGAT | -0.08
38 | TTAGACACGTGGGGAG | -0.17
39 | TTATGCACGTGAGGTT | 0.27
40 | TATTCCACGTGGTTGA | -0.02
41 | AAGTTCACGTGTTTGC | 0.19
42 | ATAGTCACGTGAGGGG | 0.24
43 | GGTTACACGTGGTAGA | 0.18
44 | AATTACACGTGTAATA | 0.27
45 | GAAGTCACGTGGAGCT | 0.21
46 | AACGTCACGTGTGATG | 0.24

Row | Sequence | relative binding free energy [kcal/mol]
47 | GGAATCACGTGGGTGA | 0.01
48 | CTGGGCACGTGGGATC | -0.13
49 | CCGGGCACGTGGTGCG | -0.23
50 | GACGGCACGTGTGGGG | 0.06
51 | GCAGGCACGTGGGTTT | -0.16
52 | AGGGTCACGTGTTGTA | 0.12
53 | CGGAACACGTGGGTTG | -0.17
54 | AGGGTCACGTGTTGGG | 0.21
55 | AATTCCACGTGTTTAG | 0.09
56 | TTATTCACGTGAGAAG | 0.48
57 | AGGATCACGTGGGACG | 0.08
58 | ATAATCACGTGGGATG | -0.1
59 | TTGTTCACGTGGAGTT | 0.25
60 | ATGCACACGTGGGGGG | -0.12
61 | GAATTCACGTGTTTCG | 0.38
62 | TTAGTCACGTGTCAGT | -0.01
63 | TATGTCACGTGTAATT | 0.17
64 | TTACGCACGTGGAGTT | -0.07
65 | CGAGGCACGTGGGTGG | -0.18
66 | TTATACACGTGATGGG | 0.17
67 | GGAATCACGTGGTGAT | 0.14
68 | TGGGTCACGTGAGGCC | 0.34
69 | AGATGCACGTGCGAGG | -0.08

Row | Sequence | relative binding free energy [kcal/mol]
70 | TTTGGCACGTGTTGAA | -0.13
71 | AGTGGCACGTGAGTTC | 0.07
72 | TTCGTCACGTGGATTG | 0.15
73 | TGTGGCACGTGATAGG | 0
74 | TGGTACACGTGGTGCG | 0
75 | TTGTACACGTGCGGGG | 0.07
76 | TTTTACACGTGTCGAG | 0.14
77 | TAGTTCACGTGAGCTT | 0.22
78 | CTTTTCACGTGGTGTT | 0.12
79 | GTCGACACGTGGAGGG | 0.18
80 | CGGTTCACGTGGAAGG | 0.32
81 | TTGTGCACGTGGGTTC | 0.01
82 | TTGATCACGTGCTTTA | 0.06
83 | TAAGGCACGTGCTGGT | -0.19
84 | GGGCACACGTGGTAGA | 0.15
85 | GGAGTCACGTGTTGTA | 0.14
86 | AGTTACACGTGTATAT | 0
87 | TGATACACGTGTGCGG | 0.01
88 | ATGGGCACGTGCATGA | -0.11
89 | GGTGACACGTGCTGGA | -0.02
90 | CGATGCACGTGGGCTT | -0.01
91 | TGTTACACGTGAAAGG | 0.21
92 | GGTTGCACGTGTGGAG | 0.06

Row | Sequence | relative binding free energy [kcal/mol]
93 | TGGAGCACGTGGCAGT | -0.22
94 | TACCTCACGTGGGGGT | 0.07
95 | CTGGTCACGTGAGTAT | 0.31
96 | GAGTACACGTGATTTT | 0.33
97 | ATTGTCACGTGTCTTA | 0.12
98 | TTTTGCACGTGTGCTG | 0.04
99 | TTTCGCACGTGATGTC | 0.07
100 | TTAGCCACGTGTATAG | -0.02
101 | TAATGCACGTGTCGGA | 0.01
102 | GAGGACACGTGGGTAT | 0
103 | TGGCTCACGTGTTCGT | 0.15
104 | GGGGTCACGTGTGAGG | 0.26
105 | AATCGCACGTGATTTT | 0.08
106 | TTATCCACGTGTAGTT | 0.03
107 | AATTGCACGTGAGGCG | 0.1
108 | TTTTGCACGTGGTCCT | -0.08
109 | ATGGTCACGTGATGAA | 0.16
110 | TCATTCACGTGTGTTA | 0.32
111 | TAACGCACGTGGGTGG | -0.32
112 | GGGTGCACGTGATTGG | 0.32
113 | CCTGTCACGTGTGTGG | 0.02
114 | ATCGTCACGTGTCGGG | 0.02
115 | AAGGTCACGTGGTACG | -0.02
